{"source": "PubChem BioAssay AID1347417", "about": "(National Center for Advancing Translational Sciences (NCATS), 2020)", "note": "The whole screen tested about 120,000 compounds, of which about 5,300 (4.4%) were called active. This list was built around the results that the source calls inconclusive (neither active nor inactive); the mix of calls is not that of the screen. The call rests on the fitted dose curve; in most records, active means well fitted inhibition curve with a large enough effect; inconclusive means small, poorly fitted or top-dose-only effect; inactive means no such curve, though single readings can be large or run the other way. A potency beside an inconclusive call is a rough fit, not a confirmed value. Potency means the concentration at half of the fitted maximal effect; tags describe the fitted curve by direction and shape.", "data": [{"experiment": "qHTS Primary assay for Inhibitors of Plasmodium falciparum Dd2 growth in vitro; further: nearly all actives have a fitted effect of over 65% in size;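 on activity, negative = inhibition: plate controls were DMSO vehicle for no effect and reference drug for full effect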", "conditions": "P. falciparum Dd2 growth, SYBR Green, 72 h; activity, negative = inhibition: at 28.9 µM (top of the series) unless noted; series mostly up to 28.9 µM", "in_short": "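Infected erythrocytes (Dd2, 0.3% parasitemia, 2.5% hematocrit final) are added to compound in RPMI-1640/Albumax II medium, grown 72 h at 37C in low oxygen, then lysed with saponin/Triton-X containing SYBR Green and read by fluorescence.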", "values": [{"smiles": "Cn1cccc1CN1CCCCC12Cc1ccccc1CNC2=O", "note": "(stereo not given)", "Potency": "inconclusive: 10 µM [inhibitor, single point]"}, {"smiles": "CC(C)Cc1cc(C[C@@H]2C[C@H](NC(=O)NC(C)C)C2(C)C)no1", "Potency": "inconclusive: 11.2 µM [inhibitor, partial curve, poor fit]"}, {"smiles": "Cc1ccc(Cl)cc1NC(=O)c1oc2ccc(S(=O)(=O)N(C)C3CCCCC3)cc2c1C", "Potency": "inconclusive: 15.8 µM [inhibitor, single point]"}, {"smiles": "Cc1ccc(Cl)cc1NC(=O)c1oc2ccc(S(=O)(=O)N3CCCCC3)cc2c1C", "Potency": "inconclusive: 20 µM [inhibitor, partial curve, poor fit]"}, {"smiles": "CN1CC2(CCN(C(=O)c3cccnc3)CC2)CC1C(=O)N1CCOCC1", "note": "(stereo not given)", "Potency": "inconclusive: 3.98 µM [inhibitor, single point]"}, {"smiles": "COC[C@@H]1CN(C(=O)c2ccc(C)nc2)C[C@H]1c1nc(C2CC2)no1", "activity, negative = inhibition": "inactive: 18%"}, {"smiles": "CC(C)C1CN(C(=O)CCn2ccc(=O)[nH]c2=O)CCC(=O)N1CC1CC1", "note": "(stereo not given)", "activity, negative = inhibition": "inactive: 9.11%"}, {"smiles": "CC(C)c1nnc(C2CN(C(=O)c3ccc(F)c(F)c3)CC23CCOCC3)o1", "note": "(stereo not given)", "activity, negative = inhibition": "inactive: -5.74%"}, {"smiles": "COc1ccc(-c2cc3c(=O)n(CCNC(=O)c4cccc(N(C)C)c4)ccn3n2)cc1", "activity, negative = inhibition": "inactive: -12.8%"}, {"smiles": "CC(C)NC(=O)N1CCC2(CC1)CC(N1CCOCC1)CCO2", "note": "(stereo not given)", "activity, negative = inhibition": "inactive: 4.15%"}, {"smiles": "COc1ccccc1OCCC1CCN(C(=O)Cc2c[nH]c3ccccc23)C1", "note": "(stereo not given)", "activity, negative = inhibition": "inactive: -9.38%"}, {"smiles": "O=C(NC1CCCCC1)N1CCN(C(=O)N2CC3CC(C2)[C@H]2CCCC(=O)N2C3)CC1", "note": "(stereo not given in full)", "outcome": "inactive"}, {"smiles": "Cc1oc2ncnc(N3CCCCC3)c2c1C(=O)N1CCN(c2cccc(Cl)c2)CC1", "activity, negative = inhibition": "inactive: -15.4%"}, {"smiles": "CCCN1C(=O)C2(c3ccccc31)c1c(oc3ccc(F)cc3c1=O)C(=O)N2CCCOC(C)C", "note": "(stereo not given)", "Potency": "inconclusive: 17.8 µM [inhibitor, single point]"}, {"smiles": "CCOc1ccc(CN2C(=O)c3ccccc3Sc3ccc(C(=O)O)cc32)cc1", "activity, negative = inhibition": "inactive: 93.1%"}, {"smiles": "O=C(NC1CCN(c2cc(-c3ccc(Cl)cc3)[nH]n2)C1)c1cccnc1", "note": "(stereo not given)", "outcome": "inactive"}, {"smiles": "CCOc1ccc(CN(C(=O)c2cc(=O)c3cc(C)cc(C)c3o2)C2CCS(=O)(=O)C2)cc1", "note": "(stereo not given)", "Potency": "inconclusive: 11.2 µM [inhibitor, single point]"}, {"smiles": "COc1cc(NC(=O)CCc2c(C)nc3cc(-c4ccccc4)nn3c2C)cc(OC)c1OC", "Potency": "inconclusive: 17.8 µM [inhibitor, single point]"}, {"smiles": "Cc1ccc2c(c1)c(=O)c(C(=O)c1ccc3c(c1)OCO3)cn2Cc1ccc(Cl)cc1", "Potency": "active: 12.6 µM"}, {"smiles": "COc1cccc(C(C)N(C)C(=O)c2cc(Cn3ccnc3C(C)C)[nH]n2)c1", "note": "(stereo not given)", "Potency": "inconclusive: 10 µM [inhibitor, single point]"}, {"smiles": "COc1cccc([S+](=O)([O-])N2CCC3(C2)C(=O)N(Cc2ccccc2)c2ccccc23)c1", "note": "(stereo not given)", "Potency": "inconclusive: 2.24 µM [inhibitor, single point]"}, {"smiles": "CC1(CNc2ccccc2)COc2ccc(C(=O)NCCc3ccccc3)cc2N1", "note": "(stereo not given)", "Potency": "inconclusive: 1.78 µM [inhibitor, full curve]"}, {"smiles": "COCCNC(=O)CCC1CCN(S(=O)(=O)c2cccc(F)c2)CC1", "activity, negative = inhibition": "inactive: -14.1%"}, {"smiles": "O=C(NCCc1ccncc1)C1CN(C(=O)C2CCCCC2)CC12CCOCC2", "note": "(stereo not given)", "activity, negative = inhibition": "inactive: -3.33%"}, {"smiles": "CCOc1cccc(CN2CC[C@@](C)(O)[C@H](N3CCCC3)C2)c1", "Potency": "inconclusive: 2.24 µM [inhibitor, single point]"}, {"smiles": "CC1=C[C@@H](CNC(=O)N2CCOCC2)[C@H](C(C)C)C[C@H]1Cc1nc2ccccc2n1C", "Potency": "inconclusive: 2.51 µM [inhibitor, full curve, poor fit]"}, {"smiles": "CCOCC1(C)COc2ccc(C(=O)Nc3cccc(Cl)c3)cc2N1", "note": "(stereo not given)", "Potency": "inconclusive: 1.26 µM [inhibitor, full curve, poor fit]"}, {"smiles": "CCCCN(CC)CCNC(=O)C1CCCN(S(=O)(=O)c2cccc3nsnc23)C1", "note": "(stereo not given)", "outcome": "inactive"}, {"smiles": "COc1cc(NC(=O)Cn2c(N(C)Cc3ccccc3)nc(C)cc2=O)cc(OC)c1", "Potency": "inconclusive: 0.708 µM [inhibitor, full curve, poor fit]"}, {"smiles": "COc1cc(C2c3c(-c4ccccc4O)n[nH]c3C(=O)N2Cc2ccco2)ccc1OCC(C)C", "note": "(stereo not given)", "Potency": "active: 2.24 µM"}, {"smiles": "COc1cc(F)ccc1-c1cc(-c2c(C)noc2C)cc2c1C(=O)N(C)C2=O", "Potency": "inconclusive: 31.6 µM [inhibitor, single point]"}, {"smiles": "COc1ccc(C(=O)N2CCc3nc(-c4ccccc4)nc(-c4ccc(OC)cc4)c3C2)cc1", "Potency": "inconclusive: 7.08 µM [inhibitor, partial curve, poor fit]"}, {"smiles": "c1coc(CN2CCc3c(sc4ncnc(N5CCOCC5)c34)C2)c1", "Potency": "active: 8.91 µM"}, {"smiles": "Cc1ccccc1S(=O)(=O)N1CCCCCCNC(=O)[C@@H]2CCC[C@@H]21", "Potency": "inconclusive: 3.55 µM [inhibitor, partial curve, poor fit]"}, {"smiles": "O=C1NCc2ccccc2CC12CCCN(Cc1ccc(F)cc1)C2", "note": "(stereo not given)", "activity, negative = inhibition": "inactive: -24.6%"}, {"smiles": "Cc1ccc(C)c(CN2C(=O)c3ccccc3S(=O)c3ccc(C(=O)N4CCN(c5cccc(Cl)c5)CC4)cc32)c1", "note": "(stereo not given)", "Potency": "inconclusive: 2 µM [inhibitor, single point]"}, {"smiles": "Cc1ccc(NC(=O)Cn2c(=O)n(CCCCC(=O)NCc3ccccc3Cl)c(=O)c3ccccc32)cc1", "outcome": "inactive"}, {"smiles": "O=C(c1ccccc1Cl)N1CCc2nc(-c3ccc(Cl)cc3)nc(-c3ccccc3)c2C1", "Potency": "inconclusive: 3.55 µM [inhibitor, full curve, poor fit]"}, {"smiles": "COc1ccccc1Cn1cc(C(=O)c2ccc(C)cc2)c(=O)c2cc3c(cc21)OCCO3", "Potency": "inconclusive: 10 µM [inhibitor, single point]"}, {"smiles": "COC(=O)c1ccc(CSc2nnc3ccc4ccccc4n23)cc1", "Potency": "inconclusive: 12.6 µM [inhibitor, single point]"}, {"smiles": "Cc1noc(C)c1S(=O)(=O)N1CCC2(CC1)c1[nH]c3ccccc3c1CCN2C", "Potency": "inconclusive: 17.8 µM [inhibitor, single point]"}, {"smiles": "Cc1ccc(C(=O)N2CCC(c3n[nH]c(=O)n3Cc3ccc(F)cc3)CC2)cc1F", "Potency": "inconclusive: 12.6 µM [inhibitor, partial curve, poor fit]"}, {"smiles": "CCc1ccccc1NC(=O)Cn1c2ncccc2c(=O)n1-c1ccccc1", "Potency": "inconclusive: 11.2 µM [inhibitor, single point]"}, {"smiles": "Cc1ccc(-n2nc(C)c([C@@H]3C=C[C@@H](NC(=O)COCC(=O)O)C3)c2C)cc1Cl", "Potency": "inconclusive: 14.1 µM [inhibitor, partial curve, poor fit]"}, {"smiles": "O=C(c1cccnc1)N1CCC(N2C(=O)C(OCC3CC3)C23CCOCC3)CC1", "note": "(stereo not given)", "activity, negative = inhibition": "inactive: 16.2%"}, {"smiles": "O=c1[nH]c(C2CCCN(Cc3ccccn3)C2)nn1-c1ccccc1", "note": "(stereo not given)", "Potency": "inconclusive: 2.82 µM [inhibitor, partial curve, poor fit]"}, {"smiles": "Cc1ccc(-n2nc3c(N4CCC(C(=O)NCc5ccccc5Cl)CC4)nnc(C)c3c2C)cc1", "Potency": "inconclusive: 6.31 µM [inhibitor, partial curve]"}, {"smiles": "Cc1ccc(N2Cc3c(ncnc3N3CCC(O)CC3)CN(C)C2=O)cc1", "Potency": "inconclusive: 2.51 µM [inhibitor, single point]"}, {"smiles": "CNC(=O)[C@@H]1CN(C(=O)c2c[nH]c3ccccc23)C[C@H]1C1CCN(C)CC1", "activity, negative = inhibition": "inactive: 6.95%"}, {"smiles": "Cc1ccccc1C(=O)N1CCCN(c2cc(-c3ccc(Cl)cc3)[nH]n2)CC1", "Potency": "inconclusive: 3.98 µM [inhibitor, single point]"}, {"smiles": "CCC(C(=O)N1CCCn2nc(C(=O)Nc3ccccc3)cc2C1)n1cccn1", "note": "(stereo not given)", "activity, negative = inhibition": "inactive: -13.6%"}, {"smiles": "CCCCCCNC(=O)Cc1csc2nc(C)c(-c3cc(C)n(-c4ccccc4OC)n3)c(=O)n12", "Potency": "inconclusive: 1.41 µM [inhibitor, partial curve, poor fit]"}, {"smiles": "O=C1[C@H]2CC[C@H](CN(Cc3ccc(-n4ccnc4)cc3)C2)N1CC1CCC1", "Potency": "inconclusive: 12.6 µM [inhibitor, single point]"}, {"smiles": "Cc1cc2nc3n(c(=O)c2n1CC(=O)Nc1ccc2c(c1)OCO2)CCC3", "outcome": "inactive"}, {"smiles": "Cc1ccc(C2Cn3nnc(-c4noc(-c5cccs5)n4)c3CO2)cc1", "note": "(stereo not given)", "Potency": "inconclusive: 8.91 µM [inhibitor, single point]"}, {"smiles": "Cc1cnn(CCC(=O)N2CCCn3ccnc3C2c2cnn(C)c2)c1", "note": "(stereo not given)", "activity, negative = inhibition": "inactive: -19.2%"}, {"smiles": "CCCCN1C(=O)[C@@H]2C[C@@H](O)CN2C2(CN(Cc3cccc(OC(F)(F)F)c3)C2)C1=O", "Potency": "inconclusive: 10 µM [inhibitor, single point]"}, {"smiles": "O=C(C[C@@H]1CCNC[C@@H]1Cc1cc(COc2ccccc2)on1)N1CCC(n2c(=O)[nH]c3ccccc32)CC1", "Potency": "inconclusive: 11.2 µM [inhibitor, single point]"}, {"smiles": "CCCc1nnc(NC(=O)C2c3ccccc3C(=O)N(CCOC)C23CCCCC3)s1", "note": "(stereo not given)", "Potency": "active: 10 µM"}, {"smiles": "CCOC(=O)CSc1nnc2n(-c3ccccc3)c(=O)c3c4c(sc3n12)CC(C(C)(C)C)CC4", "note": "(stereo not given)", "Potency": "inconclusive: 17.8 µM [inhibitor, single point]"}, {"smiles": "COc1ccc(CNC(=O)NCC2Cn3cccc3C(=O)N2Cc2ccccc2)cc1", "note": "(stereo not given)", "Potency": "inconclusive: 10 µM [inhibitor, single point]"}, {"smiles": "COc1ccc(OC)c(CNC(=O)C2CCN(C(=O)N3CC4CC(C3)[C@H]3CCCC(=O)N3C4)CC2)c1", "note": "(stereo not given in full)", "outcome": "inactive"}, {"smiles": "O=C([C@H]1CCC[C@H](O)C1)N(CCc1ccc(Cl)cc1)Cc1cccnc1", "activity, negative = inhibition": "inactive: -14.2%"}, {"smiles": "CCc1noc(-c2cn(C3CCN(C(=O)c4ccc5c(c4)OCO5)CC3)nn2)n1", "Potency": "inconclusive: 5.01 µM [inhibitor, partial curve]"}, {"smiles": "O=C(Nc1ccc2c(c1)OCCO2)N1CCC2(CC1)CC(Cc1nc(-c3cnccn3)no1)CCO2", "note": "(stereo not given)", "Potency": "inconclusive: 6.31 µM [inhibitor, partial curve, poor fit]"}]}]}
